Results reported in PubChem BioAssay AID1159614 (National Center for Advancing Translational Sciences (NCATS), 2016).
The whole screen tested about 45,000 compounds, of which about 65 (0.1%) were called active. Calls come from the whole dose curve; as a rule, active = well fitted activation curve with a large enough effect; inconclusive = small, poorly fitted or top-dose-only effect; inactive = no such curve, though single readings can be large or run the other way. The list shows a part of the results.

molecular target: Galactocerebrosidase (Homo sapiens) (UniProt P54803); assay: A Novel Cell-Based Assay to Identify Small Molecules for B -Galactocerebrosidase; conditions: 145M-Twi-hGALC-G270D cells (Twitcher mouse brain line with human GALC G270D), HMU-beta-Gal fluorescence, 48 h; series mostly up to 57.5 µM; activation: at the top concentration; note: 0% is about no effect; nearly all actives have a fitted effect of over 65% in size
UniProt P54803, sequence (P54803 whole entry, looked up): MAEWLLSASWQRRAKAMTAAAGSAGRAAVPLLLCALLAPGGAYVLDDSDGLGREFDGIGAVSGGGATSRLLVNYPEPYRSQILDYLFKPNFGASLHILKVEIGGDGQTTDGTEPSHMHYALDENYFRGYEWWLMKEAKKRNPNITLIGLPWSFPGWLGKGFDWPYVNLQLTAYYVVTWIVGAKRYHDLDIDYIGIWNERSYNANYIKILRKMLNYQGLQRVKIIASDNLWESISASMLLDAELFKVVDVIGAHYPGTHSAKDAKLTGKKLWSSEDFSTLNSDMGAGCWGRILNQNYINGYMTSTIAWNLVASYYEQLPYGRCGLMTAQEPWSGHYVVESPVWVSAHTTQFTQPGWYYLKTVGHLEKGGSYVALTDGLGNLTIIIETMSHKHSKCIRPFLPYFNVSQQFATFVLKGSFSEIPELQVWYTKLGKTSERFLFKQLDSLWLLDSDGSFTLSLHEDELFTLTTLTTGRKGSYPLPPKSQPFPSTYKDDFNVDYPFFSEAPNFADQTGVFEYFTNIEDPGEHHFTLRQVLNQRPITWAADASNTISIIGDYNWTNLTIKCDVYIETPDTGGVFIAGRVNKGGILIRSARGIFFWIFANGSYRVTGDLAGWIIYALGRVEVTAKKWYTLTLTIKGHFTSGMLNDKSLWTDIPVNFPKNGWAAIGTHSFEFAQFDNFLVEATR
Outline: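 Mutant human GALC (G270D), stably expressed in a Twitcher mouse brain cell line lacking endogenous GALC, is measured in live-treated cells via 6-hexadecanoylamino-4-methylumbelliferyl-β-galactoside hydrolysis (0.1 mM final, pH 5.2) with fluorescent detection.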

activation, inactive:
O=C(NCC(c1cccnc1)N1CCc2ccccc21)C(=O)Nc1ccccc1F (stereo unspecified) -7.5%, COc1ccc(Nc2ncnc3c2nc2n3CCCC2)cc1Cl -13.8%, CCc1cccc(NC(=O)c2cccc3c2C(=O)N(C2CCCCC2)C3)c1 -13.5%, CCOC(=O)c1nnn(CC(=O)NC(=O)Nc2ccc(F)cc2)c1C(=O)OCC -22.3%, COc1ccc(CNC(=O)c2ccc3c(c2)N(Cc2ccccc2)CCS3)cc1 -10.8%, Cc1oc2ncn(CC(C)C)c(=O)c2c1C(=O)N(Cc1ccccc1)C(C)C -4.92%, Cc1nc2nc(C(F)(F)F)[nH]n2c(=O)c1Cc1ccccc1 -13%, CC(C)Oc1ccc(C(=O)Nc2nc3c(s2)CC(C(C)(C)C)CC3)cc1 (stereo unspecified) -30.3%, CC1Cn2cc(C(=O)Nc3ccccc3C(F)(F)F)c(=O)c3c(Cl)ccc(c32)O1 (stereo unspecified) -20.1%, O=C(NCC(c1ccc2c(c1)OCO2)N1CCN(c2ccccc2)CC1)c1ccccc1 (stereo unspecified) -11.9%, c1ccc(CNCCNCc2ccccc2)cc1 -8.86%, COc1ccc(Cl)cc1NS(=O)(=O)c1c(C)[nH]c(=O)[nH]c1=O -8.82%, CCOc1ccccc1NC(=O)c1c(NC(=O)c2ccncc2)sc2c1CCC(C(C)(C)C)C2 (stereo unspecified) -16.8%, Cc1ccc(O)c(NC(=O)CCSc2nc(-c3ccco3)cc(C(F)(F)F)n2)c1 -6.17%, O=C(CN1C(=O)C2(SCC(=O)N2c2ccc(Cl)cc2)c2ccccc21)NCCc1ccccc1 (stereo unspecified) -22.5%, C#C[C@]1(OC(C)=O)CC[C@H]2[C@@H]3CCC4=C/C(=N/O)CC[C@@H]4[C@H]3CC[C@@]21CC -35%, O=C(/C=C/c1ccccc1)N1CCN(Cc2cc(=O)n3nc(-c4ccccc4Cl)sc3n2)CC1 -9.04%, COc1cc(OC)c(NC(=O)c2cn(C)c(=O)c3cc(OC)c(OC)cc23)cc1Cl -11.7%, Cc1ccc(Cn2c(C)c3cnn(CC(=O)N4CCN(c5ccc(F)cc5)CC4)c(=O)c3c2C)cc1 -5.25%, CSCCC(NS(=O)(=O)c1ccc2c(c1)oc(=O)n2C)C(=O)Nc1ccc(Cl)cc1 (stereo unspecified) -13.3%, CC(C)c1ccc(CNc2nc(-c3ccco3)nn2C(=O)c2ccc([N+](=O)[O-])cc2)cc1 -7.11%, COc1ccc(OCC(=O)N(Cc2cccs2)c2ccc(OC)cc2)cc1 -7.89%, COCc1cc(C)nc2sc3c(c12)NC(c1ccc(O)c(OC)c1)N(c1ccccc1)C3=O (stereo unspecified) -0.812%, O=C(NC1(C(F)(F)F)C(=O)Nc2c1c(=O)[nH]c(=O)n2-c1ccccc1)c1ccccc1Cl (stereo unspecified) -17.1%, COc1cc(OC)cc(-c2cc3nc(C)c(CCC(=O)Nc4ccc(C(C)=O)cc4)c(C)n3n2)c1 -7.62%, C=Cc1ccc(Cn2c(=O)cc(C)c3c(C)nn(-c4ccccc4)c32)cc1 8.27%, COc1ccc(-c2noc(N3CCC(C(=O)N4CCN(c5ccccc5F)CC4)CC3)n2)cc1 2.67%, CCOCCCNc1nc2ccccc2n2c(CC)nnc12 -14.7%, COc1cc2c(C(=O)N3CCN(c4cccc(C(F)(F)F)c4)CC3)cn(CC(C)C)c(=O)c2cc1OC -7.65%, CCn1c(C)c(C)c2cc(C(=O)NCc3ccc(OC(C)C)cc3)ccc21 -2.75%, COc1ccc(NC(=O)Cn2c(=O)n(Cc3ccc4c(c3)OCO4)c(=O)c3ccc(C(=O)NC4CCCCC4)cc32)cc1 -17.7%, Cc1nn2c(=O)cc(COC(=O)c3ccc(NC(=O)c4cccc(Br)c4)cc3)nc2s1 -2.5%, COc1ccccc1NC(=O)CSc1nc(-c2ccc(C)cc2)nc2c1Cc1c(CO)cnc(C)c1O2 -9.38%, COc1ccc(-c2cn3nc(N4CCCC(C(=O)Nc5ccccc5OC)C4)sc3n2)cc1 (stereo unspecified) -9.55%, c1ccc2occc2c1 -25.1% [at 114 µM], Cc1cccc(NC(=O)CCN2CCN(c3ccccc3F)CC2)c1 -14.1%, CCOC(=O)c1c(S(=O)(=O)NCC(=O)N2CCN(c3cc(C)ccc3C)CC2)c(C)n(C)c1C 2.44%, COC(=O)c1ccccc1NC(=O)Cn1c(=O)n(CCC(=O)NCc2ccccc2OC)c(=O)c2ccccc21 -26.9%, Cc1ccc(Cl)cc1NC(=O)CN1C(=O)CSc2ccc(S(=O)(=O)N3CCCC3)cc21 -12.4%, Cc1cn([C@@H]2O[C@H](CO)[C@@H](O)[C@H]2F)c(=O)[nH]c1=O -10.9%, O=C(CSc1nccn1C1CCCC1)Nc1cccc(F)c1 -44.8%, CSCC[C@@H](C(=O)Nc1cccc(F)c1)N1Cc2ccccc2C1=O -9.24%, CCOC(=O)C1CCN(c2c(C(=O)c3ccc(OC)cc3)cnc3ccccc23)CC1 -6.25%, COc1ccc(CCNC(=O)c2nc(SCc3ccccc3F)ncc2Cl)cc1OC -25.4%, CCOCCc1nn2c(=O)cc(COC(=O)Cc3ccccc3)nc2s1 -8.48%, CCc1ccc(-c2nc(SCC(=O)NCC3CCCO3)c(-c3ccc(C)cc3)[nH]2)cc1 (stereo unspecified) -16.1%, Cc1cccc(C)c1NC(=O)Cn1c(=O)n(CCCS(=O)(=O)C2CCCCC2)c(=O)c2ccccc21 3.08%, Cc1cccc(N2CCN(c3ccc(C(=O)O)cc3NC(=O)c3cccc(Cl)c3)CC2C)c1 (stereo unspecified) -12%, CCCN(C(=O)Cn1ncc2c1-c1ccccc1OC2)c1cccc(C)c1 -28.4%, Cc1ccc(-n2c(=O)c3ccc(C(=O)NCc4ccco4)cc3n(CC(=O)Nc3ccccc3C(F)(F)F)c2=O)cc1 -3.59%, Cc1cc(C)cc(-n2c(C)cc(C(=O)C(=O)Nc3nnc(C)s3)c2C)c1 -11.1%, CN(C(=O)Cn1cnc2onc(-c3ccc(F)cc3)c2c1=O)c1ccccc1Cl -27.7%, O=C(Cn1c(=O)oc2cc(S(=O)(=O)N3CCCCCC3)ccc21)Nc1ccc(F)cc1F -19.1%, O=C(Nc1cc2c(cc1C(=O)c1cccc(Br)c1)OCCO2)c1ccccc1F -2.92%, CCOC(=O)c1cc2c(=O)n3ccccc3nc2n(Cc2ccco2)c1=NC(=O)c1ccc(C)c(C)c1 -11.6%, CN(c1ccccc1)S(=O)(=O)c1nnc(NC(=O)COc2ccccc2)s1 -9.53%, O=C(NC1(C(F)(F)F)C(=O)Nc2c1c(=O)[nH]c(=O)n2-c1ccccc1)c1ccccc1 (stereo unspecified) -20.5%, CCCN(CCC)C(=O)Cn1c(SCc2cccc(C(F)(F)F)c2)nc2cccnc21 -9.84%, CCOc1ccc(C(=O)NCc2nc3cccnc3n2Cc2cccc(OC)c2)cc1 -3.44%, CCCN(CCC)C(=O)C(CCC(=O)OCCCN1CCN(CCOC(=O)Cc2c(C)n(C(=O)c3ccc(Cl)cc3)c3ccc(OC)cc23)CC1)NC(=O)c1ccccc1 (stereo unspecified) -15.1%, CCOc1ccccc1CNC(=O)c1ccc(NC(=O)N2CC(C)Sc3ccccc32)cc1 (stereo unspecified) -11%, COc1ccc(OC)c(CNC(=O)CN(c2ccc(C)cc2)S(=O)(=O)N(C)C)c1 -0.694%, Cc1cccc(NC(=O)N2CCN(C)c3ncccc32)c1C -5.87%, N#Cc1ccccc1NC(=O)C(=O)NCCc1csc2nc(-c3cccc(F)c3)nn12 2.67%, C=CCCCCCCCCC(=O)O -10.7%, CCOc1cccc(CC(=O)NCc2ccc3c(c2)CCN3C(C)=O)c1OCC -11.3%, Cc1ccc2[nH]cc(C(c3ccccc3)c3ccc(C)s3)c2c1 (stereo unspecified) -13.3%, CCC(C)NC(=O)CCc1c(C)nc2c(c(C)nn2-c2ccc(C)cc2)c1C (stereo unspecified) -7.69%, COCC(C)NC(=O)c1cc2c(=O)n3cccc(C)c3nc2s1 (stereo unspecified) -11.1%, CCOC(=O)c1ccc(-c2ccc(/C=C(\C#N)c3nc4ccc(C)cc4[nH]3)o2)cc1 -17.8%, COc1ccc(-c2onc(C)c2C)cc1S(=O)(=O)NCc1ccc(C)o1 -1.44%, COc1ccc(NC(=O)CSc2nc3ccccc3n2CC(=O)N2CCCCC2C)cc1 (stereo unspecified) -15.3%, Cc1nn(CCC(=O)NCc2ccc(Cl)cc2)c(=O)c2nn(-c3ccccc3)c(C)c12 -6.65%, COc1ccc(-c2nc3ccc(C4=NNC(=O)CC4C)cc3[nH]2)cc1 (stereo unspecified) -8.79%, COc1ccc(CCCc2nnc(SCC(=O)Nc3cccc(C)c3)o2)cc1 -9.35%, CC(CNC(=O)C1CCN(C(=O)N2CCOc3ccc(Cl)cc32)CC1)c1ccccc1 (stereo unspecified) -6.72%, CCN(c1ccc(Cl)cc1)S(=O)(=O)c1nnc(NC(=O)c2ccccc2C)s1 -13.5%, O=[N+]([O-])c1cc(-c2nc(-c3ccco3)no2)ccc1NCc1ccccc1 -1.83%, Cc1nn(CCCC(=O)NCc2ccc(OC(C)C)cc2)c(=O)c2c1sc1ccccc12 -12.6%, COc1ccc(S(=O)(=O)c2nnn(-c3ccccc3F)c2C)cc1 -19.6%, Cc1ccc(Cc2nc3ccccc3nc2SCC(=O)N2CCN(c3ccccc3)CC2)cc1 -12.9%, Cc1ccc(NC(=O)CC2Nc3cc(C)c(C)cc3NC2=O)c(C)c1 (stereo unspecified) -9.58%, CCOc1ccccc1NC(=O)C1=C(C)Nc2ncnn2C1c1ccc(NC(C)=O)cc1 (stereo unspecified) 3.4%, N#CC1=C2SCN(C3CCCCC3)CN2C(=O)CC1c1c(F)cccc1Cl (stereo unspecified) -10.1%, CCc1ccc(Sc2cc(C(=O)O)c3ccccc3n2)cc1 -4.59%, COc1ccc(Cn2c(CO)cnc2SCc2ccc(F)cc2)cc1 -29.7%, CCN(CC)CCNC(=O)COc1ccc(OC)cc1 -4.45%, COc1ccc(-n2nc(C(=O)N(C)c3cc(Cl)ccc3OC)c3c4ccccc4n(C)c3c2=O)cc1 -8.42%, Cc1nn(CC(=O)N2CCN(c3cccc(C(F)(F)F)c3)CC2)c(=O)c2cc3sccc3n12 -25.6%, Cc1ccc(S(=O)(=O)c2[nH]c(-c3ccccc3)nc2SCCC(=O)O)cc1 -2.79%, Cc1ccc(N2CC(NC(=O)CCc3ccccc3)CC2=O)cc1C (stereo unspecified) -8.55%, CCCn1c(=N)n(CC(O)COc2ccccc2OC)c2ccccc21 (stereo unspecified) 12.1%, Cc1cccc(N(Cc2cc3ccccc3[nH]c2=O)C(=O)c2cccc(Cl)c2)c1 -20.2%, Cc1cccc(CCNC(=O)c2ccc(CSCc3cccc(Cl)c3)o2)c1 -15.3%, CCOc1ccc(NC(=O)CC(C)O)cc1 (stereo unspecified) -11.1%, CCCN1CCN(c2cc3c(cc2F)c(=O)c(S(=O)(=O)c2ccc(CC)cc2)cn3CC)CC1 -12.5%
